Experimental findings from patent US20250387505A1, “ANTI-FGFR3 ANTIBODY CONJUGATE AND MEDICAL USE THEREOF” (GENEQUANTUM HEALTHCARE (SUZHOU) CO., LTD., priority 2022, published 2025) are described below.

For assay [1], the system named is AMB-BT-0050T cells (positive FGFR3 expression). Put plainly: Cell binding analysis by flow cytometry. The class given is cell-based, human. The settings on record: FIG. 6.1. The protocol:
1) The cell surface binding efficiency of anti-FGFR3 antibodies were analyzed using flow cytometry. About 3.0×10^5 to 5.0×10^5 FGFR3-overexpressing or FGFR3 non-expression cells were incubated with anti-FGFR3 antibodies at 4° C. for 1 h. After washing twice with Flow Cytometry Staining Buffer, the cells were stained with the goat anti-human IgG cross-adsorbed secondary antibody conjugated with Alexa Fluor 488 (Invitrogen, A-11013, Carlsbad, CA, USA) diluted 1:200 in staining buffer at 4° C. for 30 min. Mean fluorescence intensity was analyzed by flow cytometry.
The results of this analysis are shown in FIGS. 5 and 6.1, wherein AMB-BT-0050T is a cell with positive FGFR3 expression, while AMB-BT-0013T is a cell with negative FGFR3 expression. AMB-BT-0050T, AMB-BT-0013T is sampled from patients suffering brain cancer (glioblastoma).
For orientation: In flow cytometry, cells or beads pass a laser one at a time.

The subject of assay [2] is AMB-BT-0013T. Put plainly: In vitro cytotoxicity, 3D single spheroid model. The settings on record: AMB-BT-0013T GBM PDCs, FGFR3 expression −, incubated for a week. The class given is cell-based, human. The protocol:
(§1) 1) 3D single spheroid model was formed by isolating cancer cells derived from glioblastoma patients. Two types of patient-derived cells with FGFR3 overexpression (AMB-BT-0050T, AMB-BT-0112T) and FGFR3 non-expression derived cells (AMB-BT-0013T), sampled from patients suffering from glioblastoma, were incubated overnight to form single spheroids (3D), followed by ADC was treated and incubated for a week, and then spheroid size and volume were quantified.

Assay [3] has as its system AMB-BT-0050T. The assay is described as follows: In vitro cytotoxicity, 3D single spheroid model. The class given is cell-based, human. The settings on record: AMB-BT-0050T GBM PDCs, FGFR3 expression +++, incubated for a week. As for the experimental part: as §1
The subject of assay [4] is RT112 cells. The assay is described as follows: Bladder cancer CDX model. The settings on record: 5 mg/kg, QW, 2 times. The class given is in vivo, BALB/c nude mice. As for the experimental part: 8.1) RT112 cells in exponential growth stage were collected and counted for tumor inoculation. 0.2 mL of matrix gel buffer (PBS:Matrigel=1:1) was used to subcutaneously inject 10×10^6 cells into the right flank of SPF female BALB/c nude mice aged 6-8 weeks.
(§2) The tumor diameter was measured with a caliper and the tumor volume was calculated according to the formula V=0.5 a×b^2 (wherein a is the long diameter of the tumor and b is the short diameter of the tumor). When the mean tumor volume was about 100-300 mm^3, the mice were randomized into vehicle group, ADC19 5 mg/kg group and ADC20 5 mg/kg group. The day of first administration is defined as day 0. Mice in the vehicle group were given the solvent of ADC drugs with the same frequency and administration route. The tumor volume of mice in each group was measured twice a week. The experiment was end on day 27, and the tumor growth inhibition rate (TGI) was calculated as follows: TGI (%)=[1−(the mean tumor volume of the treatment group on the end day−the mean tumor volume of the treatment group on the first day)/(the mean tumor volume of the vehicle group on the end day−the mean tumor volume of the vehicle group on the first day)]×100%.
8.2) For evaluation the dose-dependent antitumor efficacy in bladder cancers, the RT112 cells bearing BALB/c nude mice were randomized grouped and treated by solvent; ADC20 8 mg/kg single dose and ADC20 8 mg/kg, QW, 2 times. The experiment was end on day 33, and the tumor growth inhibition rate (TGI) was calculated as follows: TGI (%)=[1−(the mean tumor volume of the treatment group on the end day−the mean tumor volume of the treatment group on the first day)/(the mean tumor volume of the vehicle group on the end day−the mean tumor volume of the vehicle group on the first day)]×100%. The ADC groups continued to be observed until day 84.

In assay [5] the test system is SW780 cells. Put plainly: Bladder cancer CDX model. The class given is in vivo, NOD SCID mice. The settings on record: 5 mg/kg, QW, 2 times, day 20. The protocol: 8.3) SW780 cells in exponential growth stage were collected and counted for tumor inoculation. 0.2 mL of matrix gel buffer (PBS:Matrigel=1:1) was used to subcutaneously inject 10×10^6 cells into the right flank of SPF female NOD SCID mice aged 6-8 weeks.
as §2, with “a×b^2.” for “a×b^2 (wherein a is the long diameter of the tumor and b is the short diameter of the tumor).”, “20,” for “27,”

In assay [6] the test system is FGFR3-positive RT112 cells and FGFR3-negative U87MG cells. Put plainly: Bystander killing effect in RT112/U87MG co-culture. Format: cell-based. The settings on record: incubation for a week, FIG. 11. The protocol:
Far-Red labelled FGFR3-positive RT112 cells and CFSE labelled FGFR3-negative U87MG cells were seeded onto 96 well round bottom plate with 1.0×10^4 cells for each cell types. The cells were incubated overnight for stable adhesion to plate, followed by treatment with ADCs or PBS and incubation for a week. After incubation, the cells were centrifuged at 2300 rpm for 2 min, and then supernatant was discarded. The cells were washed once with PBS, detached, and resuspended into flow cytometry staining buffer containing LIVE/DEAD staining dye. Finally, the total amount of FGFR3-positive and FGFR3-negative cells and their viability were detected and analyzed by Flow cytometer (Novocyte, Agilent).

The subject of assay [7] is KMS11 cells. Put plainly: Multiple myeloma CDX model. Format: in vivo, CB17.SCID mice. The settings on record: 5 mg/kg, QW, 2 times, day 32. As for the experimental part:
To evaluate the in vivo anti-tumor efficacy of ADC19 and ADC20 in mice bearing multiple myeloma FGFR3 overexpressed CDX model, KMS11 cells in exponential growth stage were collected and counted for tumor inoculation. 0.2 mL of matrix gel buffer (PBS:Matrigel=1:1) was used to subcutaneously inject 10×10^6 cells into the right flank of SPF female CB17.SCID mice aged 6-8 weeks.
as §2, with “a×b^2.” for “a×b^2 (wherein a is the long diameter of the tumor and b is the short diameter of the tumor).”, “32,” for “27,”

B1: A9Q (antibody)
heavy: EVQLLESGGGLVQPGGSLRLSCAASGFTFSSYDMSWVRQAPGKGLEWVSGIYSGDGSIYYADSVKGRFTISRDNSKNTLYLQMNSLRAEDTAVYYCAKDGPMNEESRFDYWGQGTLVTVSS[human IgG1 constant region not written out]
light: QSVLTQPPSASGTPGQRVTISCSGSSSNIGNNYVSWYQQLPGTAPKLLIYADSKRPSGVPDRFSGSKSGTSASLAISGLRSEDEADYYCASWDYSLSGYVFGGGTKLTVLGQPKAAPSVTLFPPSSEELQANKATLVCLISDFYPGAVTVAWKADSSPVKAGVETTTPSKQSNNKYAASSYLSLTPEQWKSHRSYSCQVTHEGSTVEKTVAPTECGALPETGG
B1: the “binding to AMB-BT-0050T cells” value in assay [1] was “bind to AMB-BT-0050T cells”.

B2: ADC19: ADC formed by ligase site-specific conjugation of Linker-Payload 1 (from MC-GGFG-DXd) to anti-FGFR3 antibody A9Q (conjugate)
heavy: B1 heavy
light: B1 light
For the molecule B2, the results for the IC50 in assay [2] and in assay [3] were 0.4 µM and 0.001 µM, respectively. For the same molecule, the results for the TGI in assay [4] (day 27), in assay [5] and in assay [7] were 106.35%, 40.80% and 108.41%, respectively. In addition, the Tumor volume is listed as 48 ± 9 mm^3 in assay [4] (day 27, Mean ± SEM); 1,109 ± 100 mm^3 in assay [5]; 9 ± 0 mm^3 in assay [7]. Also, the bystander killing effect entry in assay [6] is listed as “have bystander killing effect”.

The IC50 is the concentration that gives 50% inhibition.
